{"source": "PubChem BioAssay AID1345082", "about": "(National Center for Advancing Translational Sciences (NCATS), 2018)", "note": "The campaign covered roughly 94,000 compounds. About 4,000 (4.3%) were called active. Inconclusive results, whose numbers are uncertain, are shown with a selection of clear calls. Calls come from the whole dose curve; as a rule, active = well fitted inhibition curve with a large enough effect; inconclusive = small, poorly fitted or top-dose-only effect; inactive = no such curve, though single readings can be large or run the other way. Potencies of inconclusive entries are doubtful fits and often do not repeat. Potency is the fitted concentration of half-maximal effect; tags give direction and shape of the fitted curve.", "data": [{"assay": "Cytotoxic Profiling in NIH 3T3 Cell Line of Diverse Libraries Using Quantitative High-Throughput Screening; note: nearly all actives have a fitted effect of over 55% in size", "conditions": "NIH 3T3 viability, CellTiter-Glo ATP luminescence, 48-72 h; series mostly up to 96.7 µM", "procedure,_shortened": "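Cytotoxicity is measured as loss of cellular ATP: NIH 3T3 cells (400/well) are exposed to compound for 48 or 72 hr at 37 °C, then CellTiter-Glo luminescence is imaged after 10 min at room temperature.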", "values": [{"compound": "O=C(NCC1CCCCC1)C1CCN(C(=O)c2ccc(-c3cncnc3)cc2)CC1", "Potency": "inconclusive: 44.7 µM [inhibitor, partial curve, poor fit]"}, {"compound": "O=C(C1CCCN1C(=O)c1ccccc1Cl)N1CCC(N2CCOCC2=O)CC1", "note": "(configuration not stated)", "Potency": "inactive"}, {"compound": "O=C(Nc1cc(F)ccc1Cl)c1cc2n(n1)CC(c1ccc3c(c1)OCO3)OC2", "note": "(configuration not stated)", "Potency": "inactive"}, {"compound": "COc1cc(F)ccc1-c1cc(-c2c(C)noc2C)cc2c1C(=O)N(C)C2", "Potency": "inconclusive: 3.16 µM [inhibitor, full curve, poor fit]"}, {"compound": "CCc1ccc(CN2CCCC23Cc2ccccc2CNC3=O)s1", "note": "(configuration not stated)", "Potency": "inconclusive: 79.4 µM [inhibitor, partial curve, poor fit]"}, {"compound": "C[C@@H](NC(=O)C1CCOCC1)c1onc(-c2ccc(F)cc2)c1C(=O)O", "Potency": "inactive"}, {"compound": "CC(C)(C)CC(=O)Nc1nc2c(s1)C[C@@H]1[C@](C)(CO)[C@H](O)CC[C@@]1(C)[C@@H]2CC(=O)NC1CCCCC1", "Potency": "active: 79.4 µM"}, {"compound": "CN(C)C(=O)c1cccnc1OC1CCN(S(=O)(=O)c2ccc3c(c2)CCC3)C1", "note": "(configuration not stated)", "Potency": "inconclusive: 50.1 µM [inhibitor, partial curve, poor fit]"}, {"compound": "COc1cc(=O)n2c(c1C(=O)Nc1ccc(Br)cc1F)CCCC2", "Potency": "inconclusive: 50.1 µM [inhibitor, partial curve, poor fit]"}, {"compound": "Cc1cnc(-c2ccccc2)n1CCNC(=O)c1cccn1C", "Potency": "inactive"}, {"compound": "CC(C)(C)C1CCC2(CC1)NC(=O)N(CC(=O)NC1CCc3ccccc31)C2=O", "note": "(configuration not stated)", "Potency": "inconclusive: 15.8 µM [inhibitor, full curve, poor fit]"}, {"compound": "N#Cc1ccccc1CN1CCCC12Cc1ccccc1CNC2=O", "note": "(configuration not stated)", "Potency": "inconclusive: 2.82 µM [inhibitor, full curve, poor fit]"}, {"compound": "Cc1cc(C(=O)N2CCC3(CCC(=O)N(CCCn4ccnc4)C3)CC2)c(C)o1", "Potency": "inconclusive: 89.1 µM [inhibitor, single point]"}, {"compound": "COC(=O)CCCNC(=O)C1c2ccccc2C(=O)N(c2ccccc2)C12CCCCC2", "note": "(configuration not stated)", "Potency": "inconclusive: 79.4 µM [inhibitor, partial curve, poor fit]"}, {"compound": "CCc1nc(NC(c2ccccc2)c2ccco2)c2cnn(C)c2n1", "note": "(configuration not stated)", "Potency": "inconclusive: 39.8 µM [inhibitor, partial curve, poor fit]"}, {"compound": "O=C(Cc1ccccc1Cl)N1CCN(C(=O)c2nnn3c2COC(c2ccc(F)cc2)C3)CC1", "note": "(configuration not stated)", "Potency": "inactive"}, {"compound": "CCOc1cc(=O)n2c(c1C(=O)Nc1ccc(OC)cc1OC)CCCC2", "Potency": "inconclusive: 50.1 µM [inhibitor, partial curve, poor fit]"}, {"compound": "COc1ccc(Cc2nnc3ccc(C(=O)NCCc4ccc(F)cc4)cn23)cc1", "Potency": "inconclusive: 50.1 µM [inhibitor, partial curve, poor fit]"}, {"compound": "CC1(C(=O)NCc2cccnc2)CCCc2cnc(NCc3ccccc3)nc21", "note": "(configuration not stated)", "Potency": "active: 50.1 µM"}, {"compound": "Cc1ccc(-c2cc(N3CCC(CNC(=O)c4ccc[nH]4)CC3)n[nH]2)cc1", "Potency": "inconclusive: 44.7 µM [inhibitor, partial curve, poor fit]"}, {"compound": "COc1ccc(CN2CC(COc3ccccc3)Oc3ncccc3[S+]2(=O)[O-])cc1", "note": "(configuration not stated)", "Potency": "inconclusive: 31.6 µM [inhibitor, single point]"}, {"compound": "CC(=O)N1CC(CO)C2(CCN(Cc3ccc(C)o3)CC2)C1", "note": "(configuration not stated)", "Potency": "inconclusive: 70.8 µM [inhibitor, partial curve, poor fit]"}, {"compound": "N#Cc1cccnc1-c1cccc(C(=O)NCCNC(=O)c2ccc(F)cc2)c1", "Potency": "inconclusive: 70.8 µM [inhibitor, partial curve, poor fit]"}, {"compound": "CC(=O)N1Cc2ccccc2OC2(CCN(C(=O)NC(C)C)CC2)C1", "Potency": "inactive"}, {"compound": "COc1cccc(CN2CCc3c(cc(C(=O)NCc4cccs4)n3C)C2)c1", "Potency": "inconclusive: 50.1 µM [inhibitor, partial curve, poor fit]"}, {"compound": "CC(C)(C)OCC(O)CN1CCC(=O)N(CC2CC2)Cc2cc(F)ccc21", "note": "(configuration not stated)", "Potency": "inactive"}, {"compound": "COc1ccc(Nc2ccnc(N3CC4CCC(C3)N4CC(F)(F)F)n2)cc1", "Potency": "active: 39.8 µM"}, {"compound": "COc1cccc(-c2nnnn2[C@H]2CO[C@H]3[C@@H]2OC[C@@H]3NS(=O)(=O)c2ccc(NC(C)=O)cc2)c1", "Potency": "inactive"}, {"compound": "C[S+](=O)([O-])N1CCC(Cn2ccc3c(N4CCOCC4)nc(-c4cccc5[nH]ccc45)cc32)CC1", "Potency": "inactive"}, {"compound": "O=C(OCc1ccccc1)N1CCOCC12CCN(Cc1cccc(O)c1)CC2", "Potency": "inconclusive: 89.1 µM [inhibitor, partial curve]"}, {"compound": "Cn1cc(-c2ccncc2)cc1C(=O)N1CCN(c2cccc(Cl)c2)CC1", "Potency": "inconclusive: 44.7 µM [inhibitor, partial curve, poor fit]"}, {"compound": "Cc1cc(F)ccc1OC1CN(Cc2ccccc2)C1", "Potency": "active: 89.1 µM"}, {"compound": "Cc1nonc1OCCn1cc(C2CCCNC2)nn1", "note": "(configuration not stated)", "Potency": "inactive"}, {"compound": "CN[C@@H](C)c1nc(C2CCOCC2)nn1CC1CCCCC1", "Potency": "inactive"}, {"compound": "O=C1NCc2ccccc2CC12CCCCN2Cc1cnc2ccccc2c1", "note": "(configuration not stated)", "Potency": "inactive"}, {"compound": "O=C(c1n[nH]c2ccccc12)N1CCc2nn(Cc3ccccc3)c(=O)n2CC1", "Potency": "inconclusive: 50.1 µM [inhibitor, partial curve, poor fit]"}, {"compound": "Cc1cc(N2CCN(C(=O)C(c3ccc(F)cc3)N(C)C)CC2)cc(C)n1", "note": "(configuration not stated)", "Potency": "inconclusive: 89.1 µM [inhibitor, single point]"}, {"compound": "O=C(Nc1ccc(Cl)cc1)N1Cc2[nH]cnc2C[C@H]1c1nc(-c2ccc3ccccc3c2)no1", "Potency": "inconclusive: 39.8 µM [inhibitor, partial curve, poor fit]"}, {"compound": "COc1ccc(Nc2cc3c(nc2OC)nc(CCc2ccccc2)n3C)cn1", "Potency": "inconclusive: 56.2 µM [inhibitor, partial curve, poor fit]"}, {"compound": "O=C1c2cnc(-c3ccncc3)nc2OCCN1Cc1ccc(F)cc1F", "Potency": "inconclusive: 4.47 µM [inhibitor, full curve, poor fit]"}, {"compound": "COCCCNC(=O)C(NC(=O)c1cccc(C)c1)C1CCN(C(=O)c2ccc(C)cc2)CC1", "note": "(configuration not stated)", "Potency": "inactive"}, {"compound": "CS(=O)(=O)N1CCC2(CC1)CC(c1ccccc1)C(=O)N(C1CC1)C2", "note": "(configuration not stated)", "Potency": "inactive"}]}]}
